T1: mouse CD47 (mCD47) expressed on CHO cells (mouse, UniProt Q61735 19-303)
T1 construct: whole, on cells; also called CHO-mCD47
T1 sequence (looked up): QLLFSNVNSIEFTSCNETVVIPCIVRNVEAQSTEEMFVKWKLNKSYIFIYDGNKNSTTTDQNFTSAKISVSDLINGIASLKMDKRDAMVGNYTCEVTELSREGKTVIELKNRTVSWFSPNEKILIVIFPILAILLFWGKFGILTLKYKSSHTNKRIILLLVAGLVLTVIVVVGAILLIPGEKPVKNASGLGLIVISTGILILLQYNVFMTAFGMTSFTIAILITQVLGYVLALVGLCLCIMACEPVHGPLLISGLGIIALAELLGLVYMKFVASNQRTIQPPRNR

B1: h20-VH2-VL2 (candidate 20.7) (antibody, human IgG4 S228P, kappa)
heavy: QVQLVQSGAEVKKPGASVKVSCKASGYSFTDYYINWVRQAPGQGLEWMGRIYPGIGNTYYNKKFKGRVTITRDTSASTAYMELSSLRSEDTAVYYCARGHYGRGMDYWGQGTLVTVSSASTKGPSVFPLAPCSRSTSESTAALGCLVKDYFPEPVTVSWNSGALTSGVHTFPAVLQSSGLYSLSSVVTVPSSSLGTKTYTCNVDHKPSNTKVDKRV[human IgG4 Fc with S228P (EU numbers) omitted]
light: DIVMTQSPDSLAVSLGERATINCKSSQSLLNSIDQKNYLAWYQQKPGQPPKLLIYFASTKESGVPDRFSGSGSGTDFTLTISSLQAEDVAVYYCQQHYSTPWTFGGGTKVEIKRTVAAPSVFIFPPSDEQLKSGTASVVCLLNNFYPREAKVQWKVDNALQSGNSQESVTEQDSKDSTYSLSSTLTLSKADYEKHKVYACEVTHQGLSSPVTKSFNRGEC
notes: hIgG4-S228P/kappa; also called h20-H2-L2
B2: h20-VH1-VL2 (candidate 20.2) (antibody, human IgG4 S228P, kappa)
heavy: QVQLLESGAVLARPGTSVKISCKASGYSFTDYYINWVKQRPGQGLEWIGRIYPGIGNTYYNKKFKGRAKLTAATSASIAYLEFSSLTNEDSAVYYCARGHYGRGMDYWGQGTLVTVSSASTKGPSVFPLAPCSRSTSESTAALGCLVKDYFPEPVTVSWNSGALTSGVHTFPAVLQSSGLYSLSSVVTVPSSSLGTKTYTCNVDHKPSNTKVDKRV[human IgG4 Fc with S228P (EU numbers) omitted]
light: B1 light
notes: hIgG4-S228P/kappa; also called h20-H1-L2
B3: h20-VH5-VL1 (candidate 20.21) (antibody, human IgG4 S228P, kappa)
heavy: B1 heavy with I70M, D73Y, A76I, S85R, E89D, Y95F, L113T
light: B1 light with V110L
notes: hIgG4-S228P/kappa; also called h20-H5-L1
B4: h20-VH4-VL2 (candidate 20.17) (antibody, human IgG4 S228P, kappa)
heavy: B1 heavy with A16S, R72A, T74K, A76T, L113T
light: B1 light
notes: hIgG4-S228P/kappa; also called h20-H4-L2
B5: h20-VH2-VL1 (candidate 20.6) (antibody, human IgG4 S228P, kappa)
heavy: B1 heavy
light: B1 light with V110L
notes: hIgG4-S228P/kappa; also called h20-H2-L1
B6: h20-VH3-VL2 (candidate 20.12) (antibody, human IgG4 S228P, kappa)
heavy: B1 heavy with I70V, A76I, Y80H, E89D, L113A
light: B1 light
notes: hIgG4-S228P/kappa; also called h20-H3-L2
B7: h20-VH4-VL1 (candidate 20.16) (antibody, human IgG4 S228P, kappa)
heavy: B1 heavy with A16S, R72A, T74K, A76T, L113T
light: B1 light with V110L
notes: hIgG4-S228P/kappa; also called h20-H4-L1
B8: h20-VH1-VL1 (candidate 20.1) (antibody, human IgG4 S228P, kappa)
heavy: B2 heavy
light: B1 light with V110L
notes: hIgG4-S228P/kappa; also called h20-H1-L1
B9: h20-VH3-VL1 (candidate 20.11) (antibody, human IgG4 S228P, kappa)
heavy: B1 heavy with I70V, A76I, Y80H, E89D, L113A
light: B1 light with V110L
notes: hIgG4-S228P/kappa; also called h20-H3-L1
B10: h20-VH5-VL2 (candidate 20.22) (antibody, human IgG4 S228P, kappa)
heavy: B1 heavy with I70M, D73Y, A76I, S85R, E89D, Y95F, L113T
light: B1 light
notes: hIgG4-S228P/kappa; also called h20-H5-L2
B11: h22-VH3-VL2 (candidate 22.10) (antibody, human IgG4 S228P, kappa)
heavy: QVQLQESGAEVKKPGASVKVSCKASGYTFTTYWMHWVRQAPGQGLEWMGMIHPNSGTTNYNEKFKSRVTMTRDTSTSTVYMELSSLRSEDTAVYYCTRSHYYDGHFSYWGQGTLVTVSSASTKGPSVFPLAPCSRSTSESTAALGCLVKDYFPEPVTVSWNSGALTSGVHTFPAVLQSSGLYSLSSVVTVPSSSLGTKTYTCNVDHKPSNTKVDKRV[human IgG4 Fc with S228P (EU numbers) omitted]
light: DIVMTQSPDSLAVSLGERATINCKSSQSLLNSRTRKNYLAWYQQKPGQPPKLLIYWASTRESGVPDRFSGSGSGTDFTLTISSLQAEDVAVYYCKQSYNLWTFGGGTKLEIKRTVAAPSVFIFPPSDEQLKSGTASVVCLLNNFYPREAKVQWKVDNALQSGNSQESVTEQDSKDSTYSLSSTLTLSKADYEKHKVYACEVTHQGLSSPVTKSFNRGEC
notes: hIgG4-S228P/kappa
B12: h22-VH4-VL1 (candidate 22.13) (antibody, human IgG4 S228P, kappa)
heavy: B11 heavy with Q5V, E6Q, A24G, M70L, T76I, V79A, S85R, R87T, E89D, L114M
light: B11 light with D9G, I21F, L109V, I111V
notes: hIgG4-S228P/kappa
B13: h22-VH4-VL2 (candidate 22.14) (antibody, human IgG4 S228P, kappa)
heavy: B11 heavy with Q5V, E6Q, A24G, M70L, T76I, V79A, S85R, R87T, E89D, L114M
light: B11 light
notes: hIgG4-S228P/kappa
B14: h22-VH3-VL1 (candidate 22.9) (antibody, human IgG4 S228P, kappa)
heavy: B11 heavy
light: B11 light with D9G, I21F, L109V, I111V
notes: hIgG4-S228P/kappa

Where a chain is given by its changes, count along the chain named. Names may count otherwise.

In general, Kd refers to the equilibrium constant for the complex coming apart. A lower Kd goes with a tighter complex. The kon is a measure of how fast the partners come together. What is called koff is a measure of how fast the partners let go of each other. The low end stands for slow dissociation, the high end for fast dissociation. By EC50 is commonly meant the concentration giving half of the maximal effect. A higher EC50 goes with lower potency in that assay. The term IC50 denotes the point on the concentration scale where inhibition reaches its midpoint. A high value points to a need for much substance. The EC50 (read off the curve) is the midpoint of the concentration-response curve. High values mean weaker potency, low ones greater potency.

The first experiment has as its target T2, hu-sCD47-6His; extracellular domain of human CD47 antigen with 6His-tag (human).
T2 construct: also called hCD47-his; soluble hCD47
Nature of the experiment: SPR Biacore. For orientation: In SPR one partner is held on a chip, and binding of the other changes the refractive index at the surface.
On to B1, for which the Kd was determined as 3.77 nM and the kon turned out to be 189000 M⁻¹ s⁻¹.

Regarding B2, the Kd was 7.82 nM and the on-rate constant (kon) was found to be 136000 M⁻¹ s⁻¹.

In turn, B3 showed a Kd of 9.2 nM and a kon of 116000 M⁻¹ s⁻¹.

Take B4: binding was put at a Kd of 4.18 nM and the kon is 168000 M⁻¹ s⁻¹.

As for B5, the affinity, expressed as Kd, was 3.67 nM and the kon stood at 193000 M⁻¹ s⁻¹.

For B6, the Kd came out at 2.49 nM and the kon was found to be 246000 M⁻¹ s⁻¹.

In turn, B7 displayed a dissociation constant Kd of 3.86 nM and a kon of 175000 M⁻¹ s⁻¹.

B8 gave a Kd of 6.45 nM and a kon of 120000 M⁻¹ s⁻¹.

In the case of B9, binding was characterised by a dissociation constant (Kd) of 2.79 nM and the kon is 222000 M⁻¹ s⁻¹.

As to B10, the Kd was 8.55 nM and the kon is 142000 M⁻¹ s⁻¹.

The target in another experiment is T2, hu-sCD47-6His; extracellular domain of …. In words: SPR Biacore. The source holds these as a separate data set.
Take B11: the dissociation constant Kd amounted to 11.1 nM, the koff was found to be 0.000315 s⁻¹ and the kon was 28800 M⁻¹ s⁻¹.

On to B12, for which the affinity, expressed as Kd, was 13.2 nM; the koff came to 0.000337 s⁻¹; the kon was determined as 25600 M⁻¹ s⁻¹.

In turn, B13 gave a Kd of 10.4 nM, an off-rate (koff) of 0.000325 s⁻¹ and a kon of 31200 M⁻¹ s⁻¹.

For B14, the dissociation constant (Kd) was determined as 12.9 nM, the koff turned out to be 0.000318 s⁻¹ and the kon is 24600 M⁻¹ s⁻¹.

Another experiment has as its target T3, human CD47 (hCD47) expressed on cells (human, UniProt Q08722).
T3 construct: Transfected CHO cells or endogenous CD47 of human cells; also called CHO-hCD47; CD47 on Raji cells
Nature of the experiment: flow cytometry, Raji cells.
In turn, B1 had an EC50 of 0.156 µg/mL.

Molecule B2 showed an EC50 of 0.218 µg/mL. The EC50 values of the last two molecules are within 1.5-fold of each other.

As for B3, the response was half-maximal at 0.19 µg/mL (EC50). The EC50 values of the last two molecules are within 1.5-fold of each other.

In the case of B4, the EC50 was 0.124 µg/mL.

B5 yielded an EC50 of 0.177 µg/mL.

Take B6: the EC50 was found to be 0.153 µg/mL.

B7: the EC50 came to 0.113 µg/mL. The EC50 values of the last two molecules are within 1.5-fold of each other.

Regarding B8, the EC50 was determined as 0.193 µg/mL.

B9 gave an EC50 of 0.145 µg/mL. The EC50 values of the last two molecules are within 1.5-fold of each other.

Molecule B10 returned an EC50 of 0.189 µg/mL.

The next experiment deals with T3, human CD47 (hCD47) expressed on cells. Nature of the experiment: flow cytometry, Raji cells. The source holds these as a separate data set. For orientation: In flow cytometry, cells or beads pass a laser one at a time.
Molecule B11 yielded an EC50 of 0.141 µg/mL.

B12: the EC50 turned out to be 0.07 µg/mL. Against the preceding molecule, the EC50 is about 2-fold lower.

Take B13: the EC50 was found to be 0.099 µg/mL.

Turning to B14, a half-maximal response (EC50) required 0.101 µg/mL.

Another experiment concerns the target T2, hu-sCD47-6His; extracellular domain of …. Nature of the experiment: SPR Biacore; head read as x 10^-4.
Consider B1, for which the koff amounted to 0.00066 s⁻¹.

As for B2, the koff was found to be 0.00111 s⁻¹. Against the preceding molecule, the koff is about 1.7-fold higher.

Molecule B3 registered a koff of 0.000979 s⁻¹.

Molecule B4 yielded an off-rate constant (koff) of 0.000634 s⁻¹.

In turn, B5 displayed a koff of 0.000627 s⁻¹.

B6 came in with a koff of 0.00056 s⁻¹.

In the case of B7, the koff was 0.000619 s⁻¹. The koff values of the last two molecules are within 1.5-fold of each other.

For the molecule B8, the koff was 0.000691 s⁻¹.

For B9, the koff was found to be 0.000561 s⁻¹.

B10 displayed a koff of 0.00117 s⁻¹.

The target in the next experiment is T1, mouse CD47 (mCD47) expressed on CHO …. Nature of the experiment: flow cytometry, CHO-mCD47 cells (not shown).
For the molecule B1, the binding result is “no binding”.

Take B2: the binding result is recorded as “no binding”.

With B3, the binding result was “no binding”.

In the case of B4, the binding result is “no binding”.

B5: the binding result is listed as “no binding”.

For B6, the binding result is “no binding”.

As to B7, the binding result is given as “no binding”.

As to B8, the binding result is reported as “no binding”.

With B9, the binding result is listed as “no binding”.

As for B10, the binding result is reported as “no binding”.

In another experiment the target is T3, human CD47 (hCD47) expressed on cells. In words: flow cytometry, Raji cells, competition with hSIRPα.
Regarding B1, the IC50 came out at 0.076 µg/mL.

B2 registered an IC50 of 0.216 µg/mL.

Regarding B3, the IC50 came out at 0.169 µg/mL.

For B4, the IC50 is 0.086 µg/mL.

B5 returned an IC50 of 0.098 µg/mL. The IC50 values of the last two molecules are within 1.5-fold of each other.

Turning to B6, the IC50 was determined as 0.16 µg/mL.

For B7, the IC50 was found to be 0.1 µg/mL.

For the molecule B8, the IC50 came to 0.161 µg/mL.

The molecule B9 came in with an IC50 of 0.118 µg/mL.

B10 registered an IC50 of 0.174 µg/mL.

The target is the same in another experiment. The experiment is described as above. This is another data set of the same source.
B11: the IC50 is 0.109 µg/mL.

In turn, B12 showed an IC50 of 0.119 µg/mL.

Regarding B13, the IC50 amounted to 0.093 µg/mL.

The molecule B14 registered an IC50 of 0.075 µg/mL.

The target is the same in another experiment. In words: flow cytometry on Raji cells, hIgG4 format, delta MFI.
Turning to B6, the “EC50 (read off the curve)” value is about 0.08 µg/mL.

Another experiment shares this target. In words: flow cytometry on Raji cells, hIgG4 format: inhibition of hSIRPα binding to hCD47.
Take B6: the “IC50 (read off the curve)” value is about 0.1 µg/mL.

These data come from patent US20220356245A1 (FORTY SEVEN, published 2022).
